These results are taken from article PMC4336329 (PLoS ONE, 2015).

Screen size: about 310,000 compounds; about 14,000 (4.5%) showed an effect of 50% or more. The effect is printed as a negative number. The list shows a part of the results.
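Note: peak tail current of the secondary pulse compared with the same well before compound.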

Chain of human ether-à-go-go-related gene (hERG) potassium channel (Q12809 whole entry, looked up): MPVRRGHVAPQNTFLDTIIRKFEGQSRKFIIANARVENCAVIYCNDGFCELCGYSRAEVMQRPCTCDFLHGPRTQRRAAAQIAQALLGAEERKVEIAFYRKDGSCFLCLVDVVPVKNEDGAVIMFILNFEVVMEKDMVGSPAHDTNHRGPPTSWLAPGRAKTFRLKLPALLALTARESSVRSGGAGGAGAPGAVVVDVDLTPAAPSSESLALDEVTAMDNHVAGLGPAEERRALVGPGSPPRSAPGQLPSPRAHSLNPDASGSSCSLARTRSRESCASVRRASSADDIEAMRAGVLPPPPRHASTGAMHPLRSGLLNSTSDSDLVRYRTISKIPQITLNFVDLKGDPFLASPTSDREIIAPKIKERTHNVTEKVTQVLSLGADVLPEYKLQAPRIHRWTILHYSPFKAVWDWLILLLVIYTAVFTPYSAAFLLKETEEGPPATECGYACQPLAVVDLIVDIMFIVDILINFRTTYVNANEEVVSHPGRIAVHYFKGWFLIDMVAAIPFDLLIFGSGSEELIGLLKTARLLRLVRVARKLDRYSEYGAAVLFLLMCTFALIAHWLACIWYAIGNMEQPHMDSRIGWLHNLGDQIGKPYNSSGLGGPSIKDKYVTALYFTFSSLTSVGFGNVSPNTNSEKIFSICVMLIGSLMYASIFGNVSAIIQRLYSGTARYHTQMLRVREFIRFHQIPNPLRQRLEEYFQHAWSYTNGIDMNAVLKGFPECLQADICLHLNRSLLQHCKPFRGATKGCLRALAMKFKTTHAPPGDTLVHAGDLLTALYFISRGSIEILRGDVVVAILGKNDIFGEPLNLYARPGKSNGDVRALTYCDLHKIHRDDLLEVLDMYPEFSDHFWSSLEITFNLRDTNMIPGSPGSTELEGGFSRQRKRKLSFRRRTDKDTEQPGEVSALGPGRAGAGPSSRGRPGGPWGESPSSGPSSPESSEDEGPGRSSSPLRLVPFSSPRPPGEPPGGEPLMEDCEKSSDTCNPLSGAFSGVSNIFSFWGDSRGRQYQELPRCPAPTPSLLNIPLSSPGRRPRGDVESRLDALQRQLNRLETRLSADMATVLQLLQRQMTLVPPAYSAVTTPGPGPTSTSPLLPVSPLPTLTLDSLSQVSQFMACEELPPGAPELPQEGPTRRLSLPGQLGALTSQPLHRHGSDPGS

This assay has as its target human ether-à-go-go-related gene (hERG) potassium channel (human, UniProt Q12809). As to the kind of experiment: primary screen, population patch clamp on CHO cells stably expressing hERG.
For `CCN(CC)S(=O)(=O)c1ccc(NC(=O)Cn2cnc3ccccc3c2=O)cc1`, the “hERG current change (%, negative = inhibition) at 10uM” value was -32.8%. With `CC(C)C/C=C1\CCc2c([nH]c3ccccc23)C1=O`, the “hERG current change (%, negative = inhibition) at 10uM” value stood at 25.1%. Turning to `Cc1cccc(NC(=O)CCc2ccc(C)o2)c1`, the “hERG current change (%, negative = inhibition) at 10uM” value is listed as -2.73%. Take `COc1ccc(NC(=O)N2CCCC(C(=O)NCCc3ccccc3)C2)cc1` (stereo not shown): the “hERG current change (%, negative = inhibition) at 10uM” value worked out at 7.68%. The figure for `O=S(=O)(Nc1cccc(-n2cnnn2)c1)c1ccccc1C(F)(F)F` is 12%; for `COc1ccc(NC(=O)c2ccccc2N2C(=O)C3C4C=CC(C5CC45)C3C2=O)c(OC)c1` (stereo not shown) it is 5.63%. Regarding `O=C(O)c1cc(N=Cc2c(O)c3ccccc3oc2=O)ccc1O`, the “hERG current change (%, negative = inhibition) at 10uM” value is 9.48%.

For the compound `CCCCn1c(NC(=O)c2ccc(Br)o2)c(S(=O)(=O)c2ccccc2)c2nc3ccccc3nc21`, the “hERG current change (%, negative = inhibition) at 10uM” value was -0.885%. In the case of `Cc1ccc(S(=O)(=O)N2CCCCC2CCNC(=O)C(=O)NCc2ccco2)cc1` (stereo not shown), the “hERG current change (%, negative = inhibition) at 10uM” value is listed as -33%. As for `Cc1ccnc(NS(=O)(=O)c2ccc(NC(=O)C3C4C=CC(C4)C3C(=O)O)cc2)n1` (stereo not shown), the “hERG current change (%, negative = inhibition) at 10uM” value was 27.7%. The figure for `Cc1ccc(SCc2c(C(=O)N/N=C/c3ccc4c(c3)OCO4)nnn2-c2nonc2N)cc1` is 4.12%; for `Cc1nc(SCC(=O)c2ccc(Cl)cc2)c([N+](=O)[O-])[nH]1` it is -4.01%; for `C/C(=N\OC(=O)c1ccccc1)c1c(C)nc2cc(C)ccn12` it is -8.66%.

As for `Cc1c(Cl)c(-c2n[nH]c(=S)n2-c2ccccc2)nn1C`, the “hERG current change (%, negative = inhibition) at 10uM” value came out at 22.4%. With `Cn1ncc(Br)c1C(=O)NC1CCCCC1` the figure was 11.9%; with `CC(c1ccccc1)N1C(=O)NC(NC(=O)C(C)(C)C)(C(F)(F)F)C1=O` (stereo not shown), 7.15%; with `CCC(C)(C#CCN1CCCCC1)OCCC#N` (stereo not shown), 1.44%. With `CN1CCN(c2ccc(Cl)cc2NC(=O)c2ccc([N+](=O)[O-])cc2)CC1` the figure was -10.6%; with `O=[N+]([O-])c1ccc(-c2cn(-c3ccccc3F)c(=S)[nH]2)cc1`, -3.28%. Consider `C=CCOC(=O)/C(=C/c1cccnc1)NC(=O)c1ccccc1`, for which the “hERG current change (%, negative = inhibition) at 10uM” value is given as -27.4%. `COc1ccccc1/C=N/NC(=O)NC12CC3CC(CC(C3)C1)C2`: the “hERG current change (%, negative = inhibition) at 10uM” value stood at 22.3%. With `O=C(N/N=C1/C(=O)c2cccc3cccc1c23)c1ccc(Cl)cc1` the figure was 9.82%; with `CCc1cc(=O)oc2cc(OCC(=O)N3CCC[C@H]3C(=O)O)ccc12`, 14.8%. With `COc1ccc(NC(=O)c2cnc(NS(=O)(=O)c3ccccc3)nc2)cc1` the figure was -25.8%. With `NS(=O)(=O)c1ccc(CCNC(=O)CCC(=O)c2cccs2)cc1` the figure was -4.56%. Take `CCCS(=O)(=O)c1c(S(=O)(=O)CCC)c2ccc(C(N)=O)cn2c1C(=O)c1ccc(OC)cc1`: the “hERG current change (%, negative = inhibition) at 10uM” value is on record as -0.976%. For the compound `Nc1c(C(=O)NCc2ccc3c(c2)OCO3)nnn1CC(=O)Nc1ccc(Br)cc1`, the “hERG current change (%, negative = inhibition) at 10uM” value is reported as 19%. With `COc1ccccc1-n1cnnc1SCC(=O)NCc1cccs1` the figure was 10.7%.

`COC(=O)Cc1nc2ccccc2[nH]1.Cl`: the “hERG current change (%, negative = inhibition) at 10uM” value is listed as 11.8%. With `Cl.Oc1ccc(CNC2CCCCC2)cc1` the figure was -1.69%; with `Cc1cc(NCc2ccco2)nc2cc(O)ccc12`, -20.7%; with `Br.COc1ccccc1OCC(=O)NN1Cc2ccccc2C1=N`, 1.99%. For the compound `COc1cccc(NC(=O)CN2C(=O)NC(C)(CCC(C)C)C2=O)c1` (stereo not shown), the “hERG current change (%, negative = inhibition) at 10uM” value is reported as 11.6%.

For the compound `COC(=O)c1ccc(Cn2nc(C)c(Cl)c2C)o1`, the “hERG current change (%, negative = inhibition) at 10uM” value is 8.75%.

Regarding `O=C(NC1CCCC1)C(c1ccc(N2CCOCC2)cc1)N(C(=O)c1ccco1)c1ccccc1F` (stereo not shown), the “hERG current change (%, negative = inhibition) at 10uM” value was found to be 26%. With `CCCNC(=O)c1cc(OC)c(OC)cc1[N+](=O)[O-]` the figure was 5.78%; with `CCCCN(C(=O)c1cc2ccccc2o1)c1c(N)n(CC(C)C)c(=O)[nH]c1=O`, 5.2%; with `CCCCCC(=O)Nc1ccc(S(=O)(=O)Nc2nccnc2OC)cc1`, -34.5%. The figure for `CC1=CC(=C(C#N)c2nc3ccccc3s2)C=C(C)N1Cc1ccco1` is -3.03%; for `COc1cccc(C(=O)Nc2ccc(C(=O)c3ccncc3)cc2)c1` it is -11.7%. With `CC(C)CC(c1nnnn1Cc1ccccc1)N1CCN(C(=O)c2ccco2)CC1` (stereo not shown), the “hERG current change (%, negative = inhibition) at 10uM” value was -63.4%.

In the case of `CCc1cc2c(=O)c(-c3nc(C)cs3)coc2cc1OC(C)C(=O)NCCO` (stereo not shown), the “hERG current change (%, negative = inhibition) at 10uM” value is reported as -1.02%. The figure for `Cc1nnc(SCC(=O)Nc2cc(Cl)ccc2Cl)n1CC1CCCO1` (stereo not shown) is -14.7%; for `CN(C)S(=O)(=O)c1ccc(Cl)c(NC(=O)C2CCN(S(=O)(=O)c3cccs3)CC2)c1` it is 6.76%; for `Cc1nnc(SCC(=O)N2CCC(Cc3ccccc3)CC2)n(N)c1=O` it is -12%. For the compound `Cc1c(C(=O)N2CCC3(CC2)OCCO3)sc2ncnc(N(C)c3ccccc3)c12`, the “hERG current change (%, negative = inhibition) at 10uM” value is -16.8%.

In the case of `CCSc1nnc(NC(=O)[C@H](C)N2C(=O)C3CC=CCC3C2=O)s1` (stereo partly shown), the “hERG current change (%, negative = inhibition) at 10uM” value was -0.886%.

Take `CC1Cc2nc(SCC(=O)Nc3ccc4c(c3)OCO4)n(-c3ccc(F)cc3)c(=O)c2S1` (stereo not shown): the “hERG current change (%, negative = inhibition) at 10uM” value was -1.47%. The figure for `CC12COC3(C(=O)Nc4ccc([N+](=O)[O-])cc4)CC1CCC32C` (stereo not shown) is -32.1%. Turning to `CN(Cc1nc2ccccc2c(=O)[nH]1)C(=O)c1ccc(S(=O)(=O)N(C)C)cc1`, the “hERG current change (%, negative = inhibition) at 10uM” value is reported as 4.04%. The figure for `COC(=O)c1sc(NC(=O)CSc2nnnn2-c2ccc(C)cc2C)nc1C` is 6.33%; for `COc1ccc(CNC(=O)N2CCN(S(=O)(=O)c3ccc(C)cc3C)CC2)cc1` it is 3.67%. The figure for `Cc1ccc(-c2csc3ncn(C(C)C(=O)O)c(=O)c23)cc1` (stereo not shown) is 10.6%; for `O=C(COc1ccc(Br)cc1Cl)c1ccc[nH]1` it is -16.6%.

For `NP(=O)(Oc1ccc(Cl)cc1)Oc1ccc(Cl)cc1`, the “hERG current change (%, negative = inhibition) at 10uM” value is listed as -8.04%.

In the case of `Cc1cc(CNC(=O)C2CCC(=O)N(CCc3ccc(Cl)cc3)C2)no1` (stereo not shown), the “hERG current change (%, negative = inhibition) at 10uM” value is on record as -39.7%.

In the case of `COc1ccc(CCN(Cc2ccccn2)C(=S)Nc2cccc(C)c2)cc1OC`, the “hERG current change (%, negative = inhibition) at 10uM” value is -49.4%. The figure for `COc1cc(OC)cc(-n2nnnc2SCC(=O)Nc2ccc(C(C)=O)cc2)c1` is 8.96%. With `Cn1c(C(=O)N[C@@H](C(=O)O)c2ccccc2)cc2cc(Cl)ccc21` the figure was 25%; with `Cn1ncc2c1ncn1nc(COc3ccc4ccccc4c3)nc21`, -2.36%; with `CC(C)N(C(=O)CSc1nnc(CNc2ccc(F)cc2)o1)C(C)C`, -10.3%. Regarding `O=C(NC1CCCC1)C(c1cccnc1)N(C(=O)c1csnn1)C1CC1` (stereo not shown), the “hERG current change (%, negative = inhibition) at 10uM” value is given as 4.97%. With `COC(=O)c1ccccc1NS(=O)(=O)c1ccc2c(c1)oc(=O)n2C` the figure was 6.16%; with `O=C(N/N=C/c1cccs1)c1n[nH]c2c1CCC2`, 10.1%; with `C=C(c1ccccc1Cl)[n+]1ccccc1.F[B-](F)(F)F`, 22.5%.

With `C=CCNc1sc(C(=O)c2ccccc2)c(N)c1C#N`, the “hERG current change (%, negative = inhibition) at 10uM” value is reported as -4.18%. Take `COc1ccc(Cl)cc1NC(=O)c1oc(C)nc1C`: the “hERG current change (%, negative = inhibition) at 10uM” value stood at 2.05%. For the compound `Cc1cccc(Sc2c([N+](=O)[O-])ncn2C)n1`, the “hERG current change (%, negative = inhibition) at 10uM” value was -2.61%. Take `O=C(O)CCSc1nnc(-c2cccnc2)n1-c1ccccc1`: the “hERG current change (%, negative = inhibition) at 10uM” value stood at 11.2%. `O=c1c(Oc2ccccc2F)coc2cc(OCc3cnn(-c4ccccc4)c3)ccc12`: the “hERG current change (%, negative = inhibition) at 10uM” value was -55%.

Consider `O=C1CN(C(=O)CC2c3ccccc3-c3ccccc32)CC(=O)N1`, for which the “hERG current change (%, negative = inhibition) at 10uM” value turned out to be 0.273%. Turning to `O=C(NCC1CCCCC1)c1cc2ccccc2cc1O`, the “hERG current change (%, negative = inhibition) at 10uM” value is recorded as -8.9%. As for `COc1ccc(CCNc2nc(=S)[nH]c3cc(OC)c(OC)cc23)cc1OC`, the “hERG current change (%, negative = inhibition) at 10uM” value worked out at 8.84%. The figure for `CCc1ccc(OCCNC(=O)c2ccccc2SCc2ccccc2)cc1` is 4.85%; for `CCC(C)(C)n1nnnc1C(c1cc2cc(C)ccc2[nH]c1=O)N1CCCc2ccccc21` (stereo not shown) it is -9.91%; for `COC(=O)c1ccc(NC(=O)CCN2C(=O)CSC2=O)cc1` it is 1.95%. On to `Cc1ccc(NC(=O)c2ccc([N+](=O)[O-])cc2)cc1S(=O)(=O)N(C)C`, for which the “hERG current change (%, negative = inhibition) at 10uM” value is -39.6%. As for `COc1ccc(C(=O)c2c3ccccc3[n+]([O-])n2CCC(N)=O)cc1`, the “hERG current change (%, negative = inhibition) at 10uM” value is given as 13.1%. The figure for `COc1ccc(NC(=O)Cn2c(=O)n(CC3CCCO3)c(=O)c3cc(OC)c(OC)cc32)cc1OC` (stereo not shown) is -10.8%. For the compound `NC1=C(c2ccc(F)cc2)C(=O)CS1`, the “hERG current change (%, negative = inhibition) at 10uM” value stood at 11%. With `COc1ccc(N(C(=O)c2ccco2)C(C(=O)NC2CCCC2)c2ccc(N(C)C)cc2)cc1OC` (stereo not shown) the figure was 4.42%; with `CC1Cc2ccccc2N1C(=O)CCS(=O)(=O)c1cccc2nonc12` (stereo not shown), -1.46%. As for `CCCCCC1CC(/C(C)=N/NC(N)=O)OC1=O` (stereo not shown), the “hERG current change (%, negative = inhibition) at 10uM” value is recorded as -7.05%. The figure for `O=C(O)C(C(=O)/C=C/c1ccco1)=C1SCCS1` is 10.4%.

With `Cc1ccc(-n2nnc(-c3cnc4ccccc4c3)n2)cc1`, the “hERG current change (%, negative = inhibition) at 10uM” value came to 21.7%. The figure for `O=C1CC(c2ccco2)Sc2ccccc2N1` (stereo not shown) is 0.559%; for `COC(=O)c1ccccc1NC(=O)c1cc(-c2ccc(C)cc2)on1` it is -6.7%; for `CCn1c(SCC(=O)NC2CCCCC2)nnc1-c1ccccc1F` it is 8.53%.
